In publication PMC4336329 (PLoS ONE, 2015):
Screen size: about 310,000 compounds; about 14,000 (4.5%) showed an effect of 50% or more. Effects have a minus sign here. This is one part of the list.

Each molecule was assayed against human ether-à-go-go-related gene (hERG) potassium channel (human, UniProt Q12809) (assay: primary screen, population patch clamp on CHO cells stably expressing hERG).
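Also: peak tail current of the secondary pulse compared with the same well before compound.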

Chain of human ether-à-go-go-related gene (hERG) potassium channel (Q12809 whole entry, looked up): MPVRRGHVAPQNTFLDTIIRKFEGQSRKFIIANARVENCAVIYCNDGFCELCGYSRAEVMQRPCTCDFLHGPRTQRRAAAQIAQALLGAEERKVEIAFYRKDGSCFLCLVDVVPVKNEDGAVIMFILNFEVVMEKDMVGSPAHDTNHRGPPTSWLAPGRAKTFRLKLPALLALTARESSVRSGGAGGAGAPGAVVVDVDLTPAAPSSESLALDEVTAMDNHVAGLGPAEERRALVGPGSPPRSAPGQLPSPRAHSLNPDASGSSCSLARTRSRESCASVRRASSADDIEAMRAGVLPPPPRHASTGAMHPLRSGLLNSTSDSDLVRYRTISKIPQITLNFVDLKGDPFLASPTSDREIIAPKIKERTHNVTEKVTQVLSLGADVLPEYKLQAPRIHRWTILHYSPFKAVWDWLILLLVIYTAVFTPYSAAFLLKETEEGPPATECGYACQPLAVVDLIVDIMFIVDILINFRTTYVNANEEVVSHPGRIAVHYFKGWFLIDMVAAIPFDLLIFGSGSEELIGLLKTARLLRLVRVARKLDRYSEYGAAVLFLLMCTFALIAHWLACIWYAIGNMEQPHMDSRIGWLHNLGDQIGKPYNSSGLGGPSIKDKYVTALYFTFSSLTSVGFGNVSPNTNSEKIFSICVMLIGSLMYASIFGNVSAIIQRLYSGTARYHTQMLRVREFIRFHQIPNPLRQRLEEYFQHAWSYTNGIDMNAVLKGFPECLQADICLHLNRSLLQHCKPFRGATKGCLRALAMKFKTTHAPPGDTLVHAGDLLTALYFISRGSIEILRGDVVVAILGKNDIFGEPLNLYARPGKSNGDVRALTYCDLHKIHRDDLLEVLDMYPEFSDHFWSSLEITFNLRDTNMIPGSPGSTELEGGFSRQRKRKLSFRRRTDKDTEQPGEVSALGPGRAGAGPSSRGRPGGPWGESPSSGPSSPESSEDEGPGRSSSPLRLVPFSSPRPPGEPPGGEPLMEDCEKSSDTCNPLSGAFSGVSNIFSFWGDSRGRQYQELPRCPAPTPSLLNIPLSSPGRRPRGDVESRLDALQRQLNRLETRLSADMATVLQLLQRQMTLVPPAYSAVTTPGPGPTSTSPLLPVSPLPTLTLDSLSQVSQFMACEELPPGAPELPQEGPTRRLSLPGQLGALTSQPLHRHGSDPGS

Compound	hERG current change (%, negative = inhibition) at 10uM [%]
CCCc1nnc(SCC(=O)O)n1/N=C/c1ccc2c(c1)OCO2	-7.5
COc1ccc2c(Cl)c(C(=O)NCC3CCCO3)sc2c1Cl (centres unmarked)	18.1
Cc1cc(NC(=O)c2cc(-c3ccc(O)cc3)on2)no1	15.2
Cc1cc(-c2cc(-c3ccccc3)on2)nc(NCC2CC2)n1	15.6
COc1cccc(-c2nc(CS(=O)(=O)CC(=O)NC3CCCCCC3)c(C)o2)c1	11.4
CC(C)(C)C(=O)Nc1ccc(C(=O)N/N=C/c2ccccc2OC(=O)c2ccccc2)cc1	9.21
CCOCCCNC(=O)CCCC1=NS(=O)(=O)c2ccccc2N1	-0.783
Cc1ccc(S(=O)(=O)N2CCN(C(=O)CN3C(=O)c4ccccc4C3=O)CC2)c(C)c1	9.02
Cc1ccc(SCCN2CCC(NC(=O)OCc3ccccc3)CCC2=O)cc1 (centres unmarked)	-50.1
COc1ccccc1CN1CCNC(=O)C1CC(=O)NC1CCCCCC1 (centres unmarked)	-0.837
CCc1ccc(NC(=O)[C@@H](NC(=O)[C@@H]2Cc3ccccc3CN2)C(C)CC)cc1 (some centres unmarked)	-13.6
CN(C)S(=O)(=O)c1ccc(S(=O)(=O)NC2CCOC(C)(C)C2)cc1 (centres unmarked)	-4.07
O=C(Nc1ccc(Cl)cc1)c1cccc(NC2=NC3CS(=O)(=O)CC3S2)c1 (centres unmarked)	-15.9
COC(=O)CCSCC(=O)Nc1nnc(C)s1	1.24
COC(=O)Sc1nnc(-c2ccc(Br)cc2)o1	17.4
CC1CCN(C(=O)C2(NC(=O)Nc3cccc(F)c3)CCCCC2)CC1	7.6
Nc1cc(=O)[nH]c(SCc2nnc(-c3ccccc3)o2)n1	9.97
COc1ccc(CCNc2oc(-c3ccc(OC)c(OC)c3)nc2C#N)cc1	15.4
CCC1(CC)C(=O)C2=C3C1[C@H](C(=O)OC)C=C(C(=O)OC)C[C@H]3[C@H]1C(=O)NC(=O)[C@H]1[C@H]2C (some centres unmarked)	3.57
N#Cc1nc(Cc2ccccc2)oc1NCCCn1ccnc1	-31.5
Cc1ccc(C(C(=O)Nc2ccc3c(c2)OCO3)N(C)C(=O)/C=C\c2ccc3c(c2)OCO3)cc1 (centres unmarked)	-1.83
COc1ccccc1COC(=O)c1ccc(S(=O)(=O)N2CCOCC2)cc1	-6.12
Cc1nn(C)cc1NC(=O)c1ccc(Br)o1	9.33

Compound	hERG current change (%, negative = inhibition) at 10uM [%]
CC(C)(C)C1CCC(=O)C(C2(O)C(=O)Nc3ccccc32)C1 (centres unmarked)	8.51
C=CCn1c(Cc2csc(N)n2)nnc1SCC(=O)OCC	-0.614
COc1ccc(Cl)cc1NC(=O)CN1C(=O)CC(C)S(=O)(=O)c2ccccc21 (centres unmarked)	-11.3
NC(=O)C1CCN(C(=O)CCc2nc3sc4c(c3c(=O)[nH]2)CCCC4)CC1	-4.75
Cc1cccc(NC(=S)NC2CC3CCC(C2)N3Cc2ccco2)c1 (centres unmarked)	-43.5
Cc1ccc(NC(=O)c2ccccc2SCC(=O)N2CCCC2)cc1S(=O)(=O)N(C)C	-11.3
Cc1ccc(N(C(=O)c2csnn2)C(C(=O)NC2CCCCC2)c2ccncc2)c(C)c1 (centres unmarked)	3.19
O=C(O)c1ccc(-n2nnnc2Oc2cccc3cccnc23)cc1	11.6
O=C(Nc1ccon1)c1sc2cc(Cl)ccc2c1Cl	16.3
O=C1C2CC=C(Cl)CC2C(=O)N1CC1Cc2ccccc2CO1 (centres unmarked)	-0.878
CCOCCCN(C(=O)CCC(=O)Nc1cc(C)on1)C(C(=O)NC(C)(C)CC)c1cccc(OC)c1OC (centres unmarked)	1.62
Cc1nc2ccccc2c(C)c1C(=O)c1ccccc1.Cl	-3.87
COc1ccc(CN2CC[C@H]3C=CC[C@@H](C(=O)N4CCOCC4)[C@H]3C2=O)cc1OC	7.75
CCC1Oc2ccccc2N(CC(=O)NCCN2CCc3ccccc3C2)C1=O (centres unmarked)	-16.2
COc1cc(C)c(C)cc1S(=O)(=O)N1CCCc2ccccc21	1.43
CCC/C(=N/NC(=O)c1csc(C)c1C)c1ccc(Cl)s1	15.8
CNC(=S)N/N=C(\C)c1ccc(Cl)s1	8.33
NC(=O)Oc1cccc(OC(N)=O)c1	18
CC/C(=N\NC(=S)Nc1ccccc1)c1c(O)[nH]c(=O)[nH]c1=O	19.4
COc1ccc(-c2nc(CS(=O)(=O)CC(=O)NCCCN3CCOCC3)c(C)o2)cc1	-0.647
CCC1CCc2c(n(C)c3ccccc3c2=O)O1 (centres unmarked)	6.88
CN1CCN(CCc2nc3cc(NC(=O)c4ccco4)ccc3n2C)CC1	4.18
Cc1ccc(Nc2nc(N)nc(CSc3nccn3C)n2)cc1	-14.2

Compound	hERG current change (%, negative = inhibition) at 10uM [%]
O=C(CN1CCN(S(=O)(=O)c2ccc(F)cc2)CC1)Nc1ccc(F)cc1F	-60.3
COc1ccc(N(CC(=O)NC(C)(C)C)C(=O)c2ccco2)cc1	-2.06
CN(C)/C=C/C(=O)c1ccncc1	16.3
O=C1C(C=Nc2ccccc2O)=C(O)c2ccccc21	-1.8
COc1ccc(NC(=S)NCCN2CCC(C)CC2)cc1Cl	-30.5
CC1S/C(=N/N=C/c2ccco2)N(Cc2ccccc2)C1=O (centres unmarked)	-8.22
O=C1NC2(CCCCC2)C(=O)N1/N=C/c1ccc(O)cc1O	-16.7
CC(OC(=O)C1=COCCO1)C(=O)Nc1ccccc1C#N (centres unmarked)	12.4
CC(NS(=O)(=O)c1ccccc1)C(=O)NCCc1ccccn1 (centres unmarked)	23.3
Cc1sc(/N=C/c2c(O)ccc3ccccc23)c(C#N)c1C	29.9
O=C(Nc1nnc(C2CC2)s1)c1cccc(S(=O)(=O)N2CC(c3ccccc3)CC2=O)c1 (centres unmarked)	3.34
N#Cc1nc(-c2ccc(F)cc2)oc1NCCCn1ccnc1	-49.3
COc1ccc(C(=O)CSc2nc3cccnc3n2C)cc1	10.5
CC(=O)NCc1ccc(C(=O)COC(=O)COc2ccccc2)s1	10.8
O=C(CCC(=O)OCC(=O)c1ccc(-c2ccccc2)cc1)Nc1cccc(Cl)c1	1.65
CC(=O)Nc1ccc(OCC(O)Cn2c(CO)nc3ccccc32)cc1 (centres unmarked)	12.8
c1ccc(-c2noc(COc3ccc4c(c3)OCO4)n2)cc1	13.9
Nc1c(C(=O)Nc2ccccc2)c2nc3ccccc3nc2n1-c1ccc(O)cc1	12.5
COc1ccccc1Cn1c(=S)[nH]c2cc(C(=O)NCc3cccnc3)ccc2c1=O	30
COc1cccc(C(=O)OCC(=O)Nc2sc3c(c2C(N)=O)CCC3)c1O	11.8
O=C1C(c2ccc(F)cc2)N(Cc2ccc3c(c2)OCO3)C(=O)CN1C1CCCCCC1 (centres unmarked)	-21.2
COc1ccc(Oc2nc3ccccc3n(C)c2=O)cc1	-16.8
CCC1(C)Cc2c(sc3nc(SCC(=O)c4ccccc4)[nH]c(=O)c23)CO1 (centres unmarked)	8.68

Compound	hERG current change (%, negative = inhibition) at 10uM [%]
CCc1cc(C(=O)OC)c(NC(=O)CC2Nc3cc(C)c(C)cc3NC2=O)s1 (centres unmarked)	19.3
Cc1cc2ncn(C(=O)N3CCOCC3)c2cc1C	16.6
C/C(=N\NC(=O)c1cc(-c2ccccn2)nc2ccccc12)c1cccc([N+](=O)[O-])c1	-4.8
COC(=O)c1c(NC(=O)c2cccc([N+](=O)[O-])c2)sc(C(N)=O)c1C	5.18
O=S(=O)(c1ccccc1F)N1CCCc2ccccc21	-11.7
O=C(NC(=S)Nc1ccccc1N1CCOCC1)c1ccc(Br)cc1	8.98
COCCNC(=S)NNC(=O)c1cc(C2CC2)nc2ccccc12	21.9
Cc1ccc(CN(Cc2ccco2)C(=S)Nc2ccccc2C)cc1	18.7
CNC(=O)NC(=O)C(C)OC(=O)c1c2c(nc3ccccc13)/C(=C/c1cccs1)CC2 (centres unmarked)	12.8
COc1cc(CN2CCCN(C)CC2)c([N+](=O)[O-])cc1OC	-8.47
Cn1c(C(O)c2ccccc2F)nc(Cl)c1Cl (centres unmarked)	2.97
CC(=O)NNS(=O)(=O)c1ccccc1[N+](=O)[O-]	4.19
C/C=C/Cn1c(SC)nc2c1c(=O)[nH]c(=O)n2C	-10.1
Cn1nc(NC(=O)C(F)(F)F)c2ncc(-c3ccc(Cl)cc3)nc21	18.5
O=C(NCC(c1cccs1)N1CCOCC1)c1cccnc1 (centres unmarked)	-5.14
COc1ccc(CC(=O)N2CC(C)CC(C)C2)cc1OC (centres unmarked)	5.21
Cc1nc2c(ccc3nc(NC(=O)c4ccc5c(c4)OCCO5)sc32)s1	-74.3
N#CC(C#N)=C1C(=O)N(CCN2CCOCC2)c2ccccc21	10.4
CC(=O)Nc1ccc(S(=O)(=O)N(C#N)c2nc(N(C)C)nc(N(C)C)n2)cc1	10.4
COc1cc2c3c(c1OC)C1(C=CC(=NNC(N)=O)C=C1)CC3N(C(C)=O)CC2 (centres unmarked)	-3.79
